Reference: publication PMC3276564
Like-named read-outs stand apart in the source and are kept apart here. No constants are given. Whether binding was seen depends on the method and setting. For some assays here: Binding seen in cells or lysates may run through a third protein. Some results given as binding are weak or reduced against the parent protein; the word gives no strength. For some assays here: Where a sequence is shown, tags or fusion partners need not be part of it.

Sequences of proteins named here, by UniProt entry; tags and fusion partners are left off. Residues count along the entry.
UniProt P17460, residues 1-250: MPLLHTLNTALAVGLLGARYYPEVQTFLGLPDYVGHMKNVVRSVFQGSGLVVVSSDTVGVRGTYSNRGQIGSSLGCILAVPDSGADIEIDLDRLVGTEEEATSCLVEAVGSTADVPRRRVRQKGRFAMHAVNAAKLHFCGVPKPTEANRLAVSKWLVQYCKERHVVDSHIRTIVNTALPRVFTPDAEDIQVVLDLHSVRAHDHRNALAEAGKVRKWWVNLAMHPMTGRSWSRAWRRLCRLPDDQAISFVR
UniProt Q9IMM4: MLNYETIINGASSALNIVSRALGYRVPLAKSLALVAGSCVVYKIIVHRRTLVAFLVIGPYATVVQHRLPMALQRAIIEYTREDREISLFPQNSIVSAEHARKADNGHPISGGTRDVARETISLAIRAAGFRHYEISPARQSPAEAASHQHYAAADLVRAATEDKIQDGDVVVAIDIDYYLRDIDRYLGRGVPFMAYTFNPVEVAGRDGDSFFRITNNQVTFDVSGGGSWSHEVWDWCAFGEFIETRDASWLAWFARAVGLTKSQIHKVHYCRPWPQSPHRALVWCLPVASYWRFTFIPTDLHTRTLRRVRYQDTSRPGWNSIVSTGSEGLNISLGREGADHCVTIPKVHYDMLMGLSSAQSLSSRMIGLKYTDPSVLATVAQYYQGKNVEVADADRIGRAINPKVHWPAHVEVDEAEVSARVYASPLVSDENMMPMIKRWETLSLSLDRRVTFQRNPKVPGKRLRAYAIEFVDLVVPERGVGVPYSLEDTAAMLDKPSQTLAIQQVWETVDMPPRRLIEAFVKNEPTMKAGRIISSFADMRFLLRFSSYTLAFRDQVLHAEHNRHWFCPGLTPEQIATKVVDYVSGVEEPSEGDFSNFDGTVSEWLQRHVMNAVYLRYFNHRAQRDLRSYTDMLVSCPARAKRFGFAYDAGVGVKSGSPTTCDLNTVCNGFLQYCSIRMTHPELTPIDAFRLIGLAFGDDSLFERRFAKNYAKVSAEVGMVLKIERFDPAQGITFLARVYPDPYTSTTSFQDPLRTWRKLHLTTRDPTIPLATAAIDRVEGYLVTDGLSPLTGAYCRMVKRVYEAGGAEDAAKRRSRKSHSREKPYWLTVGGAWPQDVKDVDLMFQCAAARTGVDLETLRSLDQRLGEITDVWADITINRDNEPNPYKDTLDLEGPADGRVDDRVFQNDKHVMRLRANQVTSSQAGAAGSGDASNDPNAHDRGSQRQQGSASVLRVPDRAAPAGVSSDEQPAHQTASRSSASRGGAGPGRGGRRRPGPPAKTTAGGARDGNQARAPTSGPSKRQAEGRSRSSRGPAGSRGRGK
UniProt P14832: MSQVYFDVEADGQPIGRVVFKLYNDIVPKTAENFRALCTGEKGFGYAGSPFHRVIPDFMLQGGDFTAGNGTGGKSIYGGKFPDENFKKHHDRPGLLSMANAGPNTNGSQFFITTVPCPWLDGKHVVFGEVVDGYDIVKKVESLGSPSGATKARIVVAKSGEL
UniProt P23285, residues 21-205: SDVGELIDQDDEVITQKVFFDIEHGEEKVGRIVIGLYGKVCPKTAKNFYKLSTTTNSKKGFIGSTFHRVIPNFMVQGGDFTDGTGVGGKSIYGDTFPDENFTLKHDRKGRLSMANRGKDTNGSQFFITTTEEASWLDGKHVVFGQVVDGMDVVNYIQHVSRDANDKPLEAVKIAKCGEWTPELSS
UniProt P25719, residues 21-182: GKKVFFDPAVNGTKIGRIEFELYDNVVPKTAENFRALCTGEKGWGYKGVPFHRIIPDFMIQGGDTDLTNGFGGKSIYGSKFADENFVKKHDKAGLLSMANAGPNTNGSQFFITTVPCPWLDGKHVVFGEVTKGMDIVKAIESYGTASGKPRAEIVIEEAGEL
UniProt P25334, residues 21-318: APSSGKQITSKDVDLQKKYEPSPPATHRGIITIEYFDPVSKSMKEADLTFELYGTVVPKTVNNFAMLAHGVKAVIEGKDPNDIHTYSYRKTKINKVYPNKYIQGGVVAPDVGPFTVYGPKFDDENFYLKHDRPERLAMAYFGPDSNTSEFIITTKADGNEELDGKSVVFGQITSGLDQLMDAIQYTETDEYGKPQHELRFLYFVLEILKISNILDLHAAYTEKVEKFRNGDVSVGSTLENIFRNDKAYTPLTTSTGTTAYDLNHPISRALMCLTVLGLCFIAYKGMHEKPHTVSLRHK
UniProt P35176, residues 23-225: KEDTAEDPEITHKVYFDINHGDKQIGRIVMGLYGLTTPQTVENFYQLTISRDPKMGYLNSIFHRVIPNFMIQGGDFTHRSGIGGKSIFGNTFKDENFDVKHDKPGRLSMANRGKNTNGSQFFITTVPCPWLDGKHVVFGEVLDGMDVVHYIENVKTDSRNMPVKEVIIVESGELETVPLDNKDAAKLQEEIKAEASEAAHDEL
UniProt P53691: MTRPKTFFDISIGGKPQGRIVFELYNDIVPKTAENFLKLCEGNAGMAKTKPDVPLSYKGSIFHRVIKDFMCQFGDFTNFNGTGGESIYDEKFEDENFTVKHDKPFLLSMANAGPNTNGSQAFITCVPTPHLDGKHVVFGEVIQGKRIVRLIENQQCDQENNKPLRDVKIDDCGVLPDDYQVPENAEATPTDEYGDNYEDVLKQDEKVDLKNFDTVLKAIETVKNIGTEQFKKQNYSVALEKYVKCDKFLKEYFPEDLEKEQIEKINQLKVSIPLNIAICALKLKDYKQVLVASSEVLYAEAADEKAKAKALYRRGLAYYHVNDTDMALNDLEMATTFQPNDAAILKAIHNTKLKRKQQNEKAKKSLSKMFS
UniProt P53728: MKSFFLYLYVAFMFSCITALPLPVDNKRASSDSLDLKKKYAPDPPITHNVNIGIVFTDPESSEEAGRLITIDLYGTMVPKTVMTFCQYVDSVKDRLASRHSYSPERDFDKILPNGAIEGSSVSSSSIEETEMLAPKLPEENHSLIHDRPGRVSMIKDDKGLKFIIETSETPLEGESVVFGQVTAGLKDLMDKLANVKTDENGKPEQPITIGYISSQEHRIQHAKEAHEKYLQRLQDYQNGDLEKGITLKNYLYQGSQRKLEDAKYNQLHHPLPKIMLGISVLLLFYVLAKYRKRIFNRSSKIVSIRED
UniProt P20081: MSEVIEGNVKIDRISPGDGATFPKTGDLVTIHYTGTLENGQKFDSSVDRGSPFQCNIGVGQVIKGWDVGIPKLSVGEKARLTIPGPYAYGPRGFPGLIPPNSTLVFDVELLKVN
UniProt P32472, residues 18-135: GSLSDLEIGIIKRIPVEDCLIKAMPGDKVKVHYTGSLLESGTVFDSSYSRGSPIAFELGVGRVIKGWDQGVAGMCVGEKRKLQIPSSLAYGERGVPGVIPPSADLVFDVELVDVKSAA

How the values were obtained:
[1] = target: p28 replication protein of Turnip crinkle virus (TCV) (MYTH bait) (Turnip crinkle virus) (UniProt P17460); test: two-hybrid; split-ubiquitin membrane yeast two-hybrid (MYTH, Dualmembrane kit3); viral replication protein as bait co-expressed with NubG prey in yeast NMY51; growth on Trp-/Leu-/His-/Ade- plates
[2] = target: T1, TBSV p33 replication protein (split-ubiquitin bait, pGAD-BT2-N-His33) (Tomato bushy stunt virus) (UniProt P15962); test: as above
T1 sequence: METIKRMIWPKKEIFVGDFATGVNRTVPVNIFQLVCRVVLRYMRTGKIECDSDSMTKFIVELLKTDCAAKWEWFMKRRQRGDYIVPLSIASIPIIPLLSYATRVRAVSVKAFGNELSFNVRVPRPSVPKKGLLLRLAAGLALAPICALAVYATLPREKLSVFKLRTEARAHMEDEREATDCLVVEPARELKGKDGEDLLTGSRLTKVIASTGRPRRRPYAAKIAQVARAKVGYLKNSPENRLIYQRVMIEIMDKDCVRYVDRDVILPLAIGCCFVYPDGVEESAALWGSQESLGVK

[3] = target: protein A of Nodamuravirus (NoV) (MYTH bait) (Nodamura virus) (UniProt Q9IMM4); test: as above
[4] = target: T2, MBP-tagged TBSV p33 (Tomato bushy stunt virus) (UniProt P15962); test: pull-down; MBP-tagged p33 derivatives from E. coli immobilised on amylose columns; lysate of BY4741 yeast with FLAG-tagged cyclophilin (200 mM NaCl, 0.1% NP40, RNase A) incubated 3 h at 4°C; washed with 100 mM NaCl buffer; eluted with maltose; anti-FLAG Western blot; only the target purified
T2 sequence: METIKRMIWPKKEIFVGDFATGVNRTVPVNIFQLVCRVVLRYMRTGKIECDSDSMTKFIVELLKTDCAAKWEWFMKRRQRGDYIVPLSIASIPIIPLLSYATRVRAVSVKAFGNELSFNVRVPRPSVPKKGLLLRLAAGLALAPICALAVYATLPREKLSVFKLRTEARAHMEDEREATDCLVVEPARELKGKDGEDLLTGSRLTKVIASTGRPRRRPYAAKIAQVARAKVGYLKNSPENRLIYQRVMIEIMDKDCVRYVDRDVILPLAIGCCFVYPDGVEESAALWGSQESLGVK

[5] = target: p28 replication protein of Turnip crinkle virus (TCV) (MYTH bait) (Turnip crinkle virus) (UniProt P17460); test: two-hybrid; split-ubiquitin membrane yeast two-hybrid (MYTH, Dualmembrane kit3); viral replication protein as bait co-expressed with NubG prey in yeast NMY51; growth on Trp-/Leu-/His-/Ade- plates; remark: listed apart in the source
[6] = target: T1, TBSV p33 replication protein (split-ubiquitin bait, pGAD-BT2-N-His33) (Tomato bushy stunt virus); test: as above; remark: listed apart in the source
[7] = target: protein A of Nodamuravirus (NoV) (MYTH bait) (Nodamura virus) (UniProt Q9IMM4); test: as above; remark: listed apart in the source
[8] = target: T2, MBP-tagged TBSV p33 (Tomato bushy stunt virus); test: pull-down; MBP-tagged p33 derivatives from E. coli immobilised on amylose columns; lysate of BY4741 yeast with FLAG-tagged cyclophilin (200 mM NaCl, 0.1% NP40, RNase A) incubated 3 h at 4°C; washed with 100 mM NaCl buffer; eluted with maltose; anti-FLAG Western blot; only the target purified; remark: listed apart in the source

## Cpr1p cyclophilin (MYTH prey) (from UniProt P14832 1-162)
[1]
  binding: binds
[2]
  binding: binds
[3]
  binding: binds

## Cpr2p cyclophilin (MYTH prey) (from UniProt P23285 21-205)
[2]
  binding: no binding

## Cpr3p cyclophilin (MYTH prey) (from UniProt P25719 21-182)
[1]
  binding: binds
[2]
  binding: binds
[3]
  binding: binds

## Cpr4p cyclophilin (MYTH prey) (from UniProt P25334 21-318)
[2]
  binding: no binding

## Cpr5p cyclophilin (MYTH prey) (from UniProt P35176 23-225)
[2]
  binding: no binding

## Cpr6p Cyp40-like cyclophilin (MYTH prey) (from UniProt P53691 1-371)
[1]
  binding: binds
[2]
  binding: binds
[3]
  binding: binds

## Cpr8p cyclophilin (MYTH prey) (from UniProt P53728 1-308)
[2]
  binding: no binding

## FLAG-tagged Cpr6p (from UniProt P53691 1-371)
[4]
  binding: binds

## Fpr1p (MYTH prey) (from UniProt P20081 1-114)
[2]
  binding: binds

## Fpr2p (MYTH prey) (from UniProt P32472 18-135)
[2]
  binding: no binding

B1: Cpr7p Cyp40-like cyclophilin (MYTH prey, pPRN-N-CPR7) (protein, UniProt P47103 1-393)
chain: MIQDPLVYLDISIDKKPIGRIVCKLFREKAPKTTENFYKLCAGDVKSPLKDQQYLSYKGNGFHRVVKNFMIQAGDIVFGTQKDSSSSSVGKGGCSIYADKEEVKTDDESFCYGNFEDENLGEFVEPFTLGMANLGSPNTNNSQFFITTYAAPHLNGKHSIFGQVVHGKSVVRTIENCRVDSDGVPESDVRISDCGVWEKTMGVPLYNASNDQIGGDVYEEYPDDDTHFGDDDFGKALEAANIIKESGTLLFKKKDYSNAFFKYRKSLNYINEYMPEPDVDKERNIQFINLKMKIYLNLSLVLFNLERYDDAIMYATYLLEMDNVPNRDQAKAYYRRGNSYLKKKRLDEALQDYIFCKEKNPDDEVIEQRIEYVNRLIEENKEKTRKNISKFFS
[5]
  binding: binds
[6]
  binding: binds
[7]
  binding: binds

B2: FLAG-tagged Cpr7p (pESC-His-CupFlag-CPR7) (protein, UniProt P47103 1-393)
chain: MIQDPLVYLDISIDKKPIGRIVCKLFREKAPKTTENFYKLCAGDVKSPLKDQQYLSYKGNGFHRVVKNFMIQAGDIVFGTQKDSSSSSVGKGGCSIYADKEEVKTDDESFCYGNFEDENLGEFVEPFTLGMANLGSPNTNNSQFFITTYAAPHLNGKHSIFGQVVHGKSVVRTIENCRVDSDGVPESDVRISDCGVWEKTMGVPLYNASNDQIGGDVYEEYPDDDTHFGDDDFGKALEAANIIKESGTLLFKKKDYSNAFFKYRKSLNYINEYMPEPDVDKERNIQFINLKMKIYLNLSLVLFNLERYDDAIMYATYLLEMDNVPNRDQAKAYYRRGNSYLKKKRLDEALQDYIFCKEKNPDDEVIEQRIEYVNRLIEENKEKTRKNISKFFS
[8]
  binding: binds
